# Test results: PubChem BioAssay AID1347165 (National Center for Advancing Translational Sciences (NCATS), 2019)
# Values joined by “and” are separate entries in the source; they are usually repeats but may differ in a detail not shown here. Equal values may be shown once. Hit rate of the full screen: of about 220,000 compounds, about 5,700 (2.6%) were called active. The inconclusive results got no clear call from the source; some entries with a clear call stand among them for comparison. Calls follow the shape of the dose curve; as a rule, active = well fitted inhibition curve with a large enough effect; inconclusive = small, poorly fitted or top-dose-only effect; inactive = no such curve, though single readings can be large or run the other way. Potencies beside an inconclusive call are fits to weak or partial responses and may not hold up.
# Target: Lysine-specific demethylase 5B (Homo sapiens) (UniProt Q9UGL1)
# Chain of UniProt Q9UGL1 (Q9UGL1 whole entry, looked up): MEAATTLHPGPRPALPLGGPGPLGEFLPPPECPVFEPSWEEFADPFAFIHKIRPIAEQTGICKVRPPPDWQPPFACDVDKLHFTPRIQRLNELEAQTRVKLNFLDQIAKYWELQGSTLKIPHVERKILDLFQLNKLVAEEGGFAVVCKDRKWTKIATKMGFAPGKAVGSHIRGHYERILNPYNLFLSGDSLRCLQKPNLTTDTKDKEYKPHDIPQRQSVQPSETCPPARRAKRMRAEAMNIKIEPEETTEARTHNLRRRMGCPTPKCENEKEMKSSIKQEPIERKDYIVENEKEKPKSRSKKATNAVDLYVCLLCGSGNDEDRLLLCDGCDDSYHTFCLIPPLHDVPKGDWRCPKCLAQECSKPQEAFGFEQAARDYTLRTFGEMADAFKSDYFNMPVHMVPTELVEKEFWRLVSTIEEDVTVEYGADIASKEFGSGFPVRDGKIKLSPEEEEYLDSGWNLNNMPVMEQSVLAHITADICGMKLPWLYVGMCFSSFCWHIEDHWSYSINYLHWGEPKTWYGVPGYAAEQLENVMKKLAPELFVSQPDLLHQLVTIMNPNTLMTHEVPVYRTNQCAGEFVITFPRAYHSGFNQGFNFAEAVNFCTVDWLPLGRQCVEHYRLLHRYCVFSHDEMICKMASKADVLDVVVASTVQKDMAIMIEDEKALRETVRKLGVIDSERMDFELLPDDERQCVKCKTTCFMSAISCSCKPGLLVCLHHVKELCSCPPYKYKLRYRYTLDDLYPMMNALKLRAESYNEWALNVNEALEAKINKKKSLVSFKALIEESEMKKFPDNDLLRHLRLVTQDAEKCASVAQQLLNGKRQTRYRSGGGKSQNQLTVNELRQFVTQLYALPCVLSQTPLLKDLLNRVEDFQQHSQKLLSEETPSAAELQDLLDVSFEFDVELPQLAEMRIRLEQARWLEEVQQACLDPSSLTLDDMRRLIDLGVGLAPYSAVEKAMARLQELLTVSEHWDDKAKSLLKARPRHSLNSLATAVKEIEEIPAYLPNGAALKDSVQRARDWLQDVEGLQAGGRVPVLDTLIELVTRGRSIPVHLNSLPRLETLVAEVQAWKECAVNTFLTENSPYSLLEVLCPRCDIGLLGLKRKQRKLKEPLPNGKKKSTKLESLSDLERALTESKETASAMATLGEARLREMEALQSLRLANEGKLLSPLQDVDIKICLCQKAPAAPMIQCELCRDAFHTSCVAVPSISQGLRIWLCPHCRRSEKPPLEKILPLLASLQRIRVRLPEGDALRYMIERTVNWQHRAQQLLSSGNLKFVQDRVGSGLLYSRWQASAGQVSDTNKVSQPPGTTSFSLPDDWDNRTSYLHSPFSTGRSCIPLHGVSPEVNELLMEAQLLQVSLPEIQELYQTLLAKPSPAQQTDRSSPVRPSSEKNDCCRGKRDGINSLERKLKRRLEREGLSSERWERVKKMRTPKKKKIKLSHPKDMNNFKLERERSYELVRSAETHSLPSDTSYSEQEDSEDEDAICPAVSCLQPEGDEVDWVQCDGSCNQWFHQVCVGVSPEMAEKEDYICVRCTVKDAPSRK
# Assay: Primary screen for KDM5B Histone Demethylases FDH-coupled qHTS; also: nearly all actives have a fitted effect of over 70% in size
# Conditions: FDH-coupled NADH fluorescence (FDH is formaldehyde dehydrogenase); series mostly up to 57.7 µM
# Outline: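 Coupled FDH/NAD⁺ fluorescence readout. KDM5BΔAP 200 nM final; compound titration, 10 min RT preincubation; substrate mix 12.5 µM H3K4me3, 25 µM 2-OG, 50 µM Fe(II), 100 µM ascorbate, 0.25 mM NAD⁺, 0.25 U/mL FDH; ΔRFU over 30 min.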
# Potency is read from the fitted curve at half-maximal effect; tags tell the direction and shape of the fitted curve.
row,Compound,Potency
1,Cc1ccc(Cn2c(-c3cccc(Cl)c3)nc(C)c(CCO)c2=O)cc1,"inconclusive: 1.58 µM [inhibitor, full curve]"
2,c1ccc(C2=NOC3(CCN(C4CCCCC4)CC3)C2)cc1,"inconclusive: 89.1 µM [inhibitor, partial curve, poor fit]"
3,CC(C)N1C[C@H](O)C[C@H]1c1nnc2n1CCN(C(=O)c1ccoc1)C2,"inconclusive: 22.4 µM [inhibitor, single point]"
4,COc1ccc2nc([C@H]3CCN(Cc4ccc(F)cc4)C3)[nH]c2c1,"inconclusive: 31.6 µM [inhibitor, single point]"
5,CN1CCN([C@@H]2[C@H](O)[C@H](CO)O[C@@H]2CNS(=O)(=O)c2ccccc2)CC1,"inconclusive: 20 µM [inhibitor, partial curve, poor fit]"
6,Cc1ccc(CN(C)Cc2ccccc2)o1,inactive
7,CN(C)C[C@@H]1CN(C)C[C@H]1NC(=O)C1CCC1,"inconclusive: 15.8 µM [inhibitor, partial curve]"
8,COc1ccc(CCNC(=O)c2ccc3c(c2)N(Cc2ccc(C)cc2)CCS3)cc1OC,"inconclusive: 10 µM [inhibitor, partial curve, poor fit]"
9,Cc1ccc2cc(CCNS(=O)(=O)c3ccc(Br)cc3)c(=O)[nH]c2c1C,"inconclusive: 35.5 µM [inhibitor, single point]"
10,Cc1cc(N2CCN(C)CC2)nc2ccc(NC(=O)Nc3ccccc3Br)cc12,"inconclusive: 31.6 µM [inhibitor, partial curve, poor fit]"
11,COc1ccc2nc(C)cc(SCC(NC(C)=O)C(=O)OC(C)C)c2c1 (stereo not drawn),"inconclusive: 39.8 µM [inhibitor, single point] and inconclusive: 25.1 µM [inhibitor, single point]"
12,Cn1c(=O)c2cc(C(=O)Nc3ccc(Cl)c4ncccc34)cnc2n(C)c1=O,inactive
13,COc1ccc(-c2nn(-c3ccccc3C)cc2CN(C)Cc2nonc2C)cc1F,"inconclusive: 31.6 µM [inhibitor, single point]"
14,N/C(=C\C(=O)/C=C/c1ccccc1)C(Cl)(Cl)Cl,"inconclusive: 22.4 µM [inhibitor, partial curve, poor fit]"
15,COc1ccc(N2CCN(C(=O)CCc3c(C)nc4c(-c5ccccc5)c(C)nn4c3C)CC2)cc1,"inconclusive: 39.8 µM [inhibitor, partial curve, poor fit]"
16,O=C1OC[C@@H]2CCNCc3ccccc3N12,inactive
17,CN(CC(=O)Nc1cccc(Cl)c1)S(=O)(=O)c1ccc2[nH]c3c(c2c1)CCCC3,"inconclusive: 28.2 µM [inhibitor, partial curve, poor fit]"
18,CCOC(=O)C1(Cc2ccc(F)cc2F)CCCN(C(=O)c2c(C)nc3ncccn23)C1 (stereo not drawn),active: 31.6 µM
19,COc1ccc2c(c1)cc(CNc1ccc(OC)c(OC)c1)c(=O)n2CC(=O)Nc1ccc(F)cc1,"inconclusive: 11.2 µM [inhibitor, partial curve, poor fit]"
20,CCOP(=O)(OCC)c1nc(-c2ccc([N+](=O)[O-])cc2)oc1NCc1ccc(F)cc1,inactive
21,CCc1nc2c(c(-c3ccc(Cl)cc3)n1)CN(CCC(C)C)CC2,"inconclusive: 15.8 µM [inhibitor, partial curve, poor fit]"
22,COc1ccc(NC(=O)c2cc3ccc(O)cc3oc2=O)cc1,inactive
23,CN1CC(=O)N(C2CCC2)Cc2c(NC3CC3)ncnc21,"inconclusive: 89.1 µM [inhibitor, partial curve]"

row,Compound,Potency
1,COc1ccc(-c2nc3c4ccccc4ccn3c2CN2CCCCC2)cc1OC,"inconclusive: 28.2 µM [inhibitor, partial curve, poor fit]"
2,CC(=O)N(Cc1cc2ccccc2[nH]c1=O)CC(C)C,inactive
3,CC(C1CC1)N(Cc1ccccc1)S(=O)(=O)c1cccc2nsnc12 (stereo not drawn),inactive
4,CCCOc1ccc(-c2nc3ccccc3c(=O)o2)cc1,"inconclusive: 1.58 µM [inhibitor, full curve, poor fit]"
5,Cc1ccc(C(=O)NC2CCCc3ccccc32)s1 (stereo not drawn),inactive
6,Cc1c(CNCCc2ccccc2Cl)c(C(=O)O)c(C)n1-c1ccccc1,"inconclusive: 22.4 µM [inhibitor, single point]"
7,COc1ccc(CNC(=O)CCc2cn(Cc3cc(C)ccc3C)c3ccccc23)cc1OC,inactive
8,O=c1cc(-c2ccccc2)nc(SCc2nc(-c3ccc(C(F)(F)F)cc3)no2)[nH]1,"inconclusive: 15.8 µM [inhibitor, partial curve, poor fit]"
9,COc1ccccc1C(=O)Nc1c(-c2ccccc2)nc2ccccn12,inactive
10,CC[C@H](C)[C@H](N)C(=O)N1CCC(Cn2cc(C3CCCC3)nn2)CC1,"inconclusive: 11.2 µM [inhibitor, partial curve, poor fit]"
11,CCOC(=O)c1c(NC(=O)CS(=O)(=O)c2ccc(C)cc2)sc2c1CCC(C)C2 (stereo not drawn),"inconclusive: 28.2 µM [inhibitor, single point]"
12,CCc1ccccc1NC(=O)N1CCN(c2nnc(C)c3c(C)n(-c4ccccc4)nc23)CC1,inactive
13,COc1ccc(C(=O)NCC(=O)OCC(=O)c2ccccc2)cc1,"inconclusive: 22.4 µM [inhibitor, single point]"
14,O=Cc1ccc(N2CCN(C(=O)Nc3ccccc3)CC2=O)cc1,"inconclusive: 56.2 µM [inhibitor, partial curve]"
15,Cc1nn2c(c1-c1ccccc1-c1ccccc1)N(Cc1ccc(OCC(=O)O)cc1)CCC2,"inconclusive: 28.2 µM [inhibitor, single point]"
16,COc1cc2ccccc2cc1C(=O)N1CCN(c2nc3c(C)cc(C)cc3s2)CC1,"inconclusive: 15.8 µM [inhibitor, partial curve, poor fit]"
17,CC(C)(C)c1[nH]c2ccc(-c3ccccc3)cc2c1C=O,inactive
18,O=C(c1cccc(OC2CN(C3CCN(Cc4ccccc4)CC3)C2)c1)N1CCOCC1,inactive
19,O=C1Nc2ccc(Br)cc2C1=Nc1cccnc1,"inconclusive: 20 µM [inhibitor, single point]"
20,CC(NC(=O)c1cccc2c1CCN2C(=O)Nc1ccc(F)cc1)c1ccccn1 (stereo not drawn),inactive
21,O=C(N[C@H]1C[C@H]2C(=O)NC[C@@H](CCC(=O)N3CCN(c4ccccn4)CC3)N2C1)C1CC1,active: 31.6 µM
22,O=C(CCc1ccccc1)N1CCC(c2n[nH]c(=O)n2-c2ccccc2)CC1,inactive
23,Cc1cc(N2CCOCC2)nc(Nc2ccc(NC(=O)c3ccccc3)cc2)n1,inactive

row,Compound,Potency
1,CC1CCCCN1CCCNC(=O)c1cc2c(s1)CN(C1CCCC1)C2 (stereo not drawn),"inconclusive: 15.8 µM [inhibitor, partial curve, poor fit]"
2,COc1ccccc1OCC(=O)Nc1nnc2n1CCS2,"inconclusive: 28.2 µM [inhibitor, partial curve, poor fit]"
3,Cc1ccccc1C(=O)N1CCCC(c2nc3ccccc3[nH]2)C1 (stereo not drawn),inactive
4,COc1ccc(C2CCCN2CC(=O)N(CCC#N)c2ccccc2)cc1 (stereo not drawn),inactive
5,CC(C)c1noc(-c2cccn3c(CNC(=O)c4ccco4)nnc23)n1,active: 22.4 µM
6,COc1ccc(-c2nc(CC(=O)NC3CCN(Cc4ccccc4)C3)cs2)cc1OC (stereo not drawn),"inconclusive: 20 µM [inhibitor, partial curve, poor fit]"
7,CN1CCC(NC[C@H]2COCc3nc4cc(F)ccc4n32)CC1,inactive
8,CCN1CCCC1CNC(=O)C(=O)Nc1cccc2[nH]ccc12 (stereo not drawn),inactive
9,CCC(C)NC(=O)Cc1c(C)c2cc3c(cc2oc1=O)OC(C)(C)CC3 (stereo not drawn),"inconclusive: 8.91 µM [inhibitor, partial curve, poor fit]"
10,N#Cc1ccc(CSc2nnc3c(Cl)cc(C(F)(F)F)cn23)cc1,inactive
11,Cc1cccc(-n2cc(-c3ccccc3)c3c(NC(C)C)ncnc32)c1,"inconclusive: 2.24 µM [inhibitor, partial curve, poor fit]"
12,NC(=O)c1cccnc1NCCc1cccs1,"inconclusive: 31.6 µM [inhibitor, single point]"
13,COc1ccc2c(c1)CCc1sc(NC(=O)c3ccc(Cl)cc3)nc1-2,"inconclusive: 31.6 µM [inhibitor, partial curve, poor fit]"
14,CCn1cc2c3c(cccc31)CN(C(=O)Cc1ccccc1C)CC2,"inconclusive: 31.6 µM [inhibitor, partial curve, poor fit]"
15,Cc1ccsc1C(=O)N(C)C1CCN(CCc2ccccn2)CC1,inactive
16,COc1ccc(-c2nc(C#N)c(NC3CC3)o2)cc1,"inconclusive: 25.1 µM [inhibitor, partial curve, poor fit]"
17,O=C(NCc1c[nH]c2ncccc12)c1cccc(Br)c1,inactive
18,CN(C)C(=O)c1c[nH]c2cccnc12,active: 126 µM
19,O=C(Nc1ccccc1)N1CC(Oc2cccc(-c3nc(-c4ccccc4)no3)c2)C1,"inconclusive: 28.2 µM [inhibitor, single point]"
20,CCOC(=O)CSC1=C(C#N)C(c2ccco2)C(C(=O)Nc2cccc(C(F)(F)F)c2)=C(C)N1 (stereo not drawn),"inconclusive: 22.4 µM [inhibitor, single point]"
21,COc1ccc(CNC(=O)[C@@H]2Cc3nc[nH]c3CN2Cc2ccc(C(=O)O)cc2)cc1,"inconclusive: 28.2 µM [inhibitor, single point]"
22,Cc1noc(C)c1-c1cc2c(cc(C)n2C)c(NCc2ccncc2)n1,"inconclusive: 35.5 µM [inhibitor, partial curve, poor fit]"
